Test results as given in paper PMC12822405.
Substitutions are numbered along the chain they refer to. These are yes or no findings as the source states them, for the method shown. Binding seen in cells or lysates may run through a third protein. Some entries that bind do so weakly or less than the wild type.

Experiments:
Tetraspanin 4 (TSPAN4) [1] = molecular target: T1, Tetraspanin 4 (TSPAN4) (UniProt O14817); test: pull-down; His pull‐down from 786‐O lysates on Ni‐NTA agarose, 90 min 4 °C; washed three times with 8 M urea‐containing buffer to remove non‐covalent binding; shows covalent binding only
T1 sequence: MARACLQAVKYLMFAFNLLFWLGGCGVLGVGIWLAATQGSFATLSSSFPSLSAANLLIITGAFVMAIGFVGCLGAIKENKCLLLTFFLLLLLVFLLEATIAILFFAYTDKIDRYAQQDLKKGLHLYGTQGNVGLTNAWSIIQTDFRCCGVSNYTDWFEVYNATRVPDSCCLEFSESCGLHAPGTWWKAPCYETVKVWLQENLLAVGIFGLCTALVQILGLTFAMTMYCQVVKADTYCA

Tetraspanin 4 (TSPAN4) [2] = molecular target: T1, Tetraspanin 4 (TSPAN4); test: co-IP; both proteins expressed in 786‐O cells; lysis buffer 20 mM Tris, 150 mM NaCl, 1 mM EDTA, 1 mM EGTA, 2.5 mM sodium pyrophosphate, 1% Triton X‐100; protein G‐sepharose and antibody 3 h at 4 °C; ITM2B^1‐115 with p10 also in TSPAN4‐knockdown cells (not affected)
[3] = molecular target: T2, TSPAN4^C5S (Cys5 mutant of TSPAN4) (UniProt O14817); test: pull-down; His pull‐down from 786‐O lysates on Ni‐NTA agarose, 90 min 4 °C; washed three times with 8 M urea‐containing buffer to remove non‐covalent binding; shows covalent binding only
T2 sequence: T1 sequence with C5S

Tetraspanin 4 (TSPAN4) [4] = molecular target: T1, Tetraspanin 4 (TSPAN4); test: pull-down; His pull‐down with 8 M urea washes as a2, with reducing agents (β‐ME, TCEP)

Substance | binding (Tetraspanin 4 (TSPAN4) [1]) | binding (Tetraspanin 4 (TSPAN4) [2]) | binding [3] | binding (Tetraspanin 4 (TSPAN4) [4])
ITM2B 1–115^C54S (Cys54 mutant of the ITM2B truncation) (from UniProt Q9Y287 1-115) (domain or fragment) | no binding | no binding |  | 
ITM2B^116‐266 (the C‐terminal fragment after ITM2B cleavage) (from UniProt Q9Y287 116-266) (domain or fragment) |  | no binding |  | 
ITM2B^1‐115 (N‐terminal truncation of integral membrane protein 2B) (from UniProt Q9Y287 1-115) (domain or fragment) | binds | binds | no binding | no binding (condition: with reducing agents (β‐ME, TCEP))
